Experimental data taken from the antibiotic and cytotoxicity screens of Wong et al. (2023).
The other results are listed elsewhere or left out.

These compounds were tested on HSkMC (human skeletal muscle cells) (assay: cytotoxicity call (relative viability < 0.9)). Settings: 10 µM.

Compound | cytotoxicity call
CCCC#Cc1cnc2c(c1)C(=O)N([C@H](C)CO)C[C@@H](C)[C@@H](CN(C)S(=O)(=O)c1cn(C)cn1)O2 | inactive
COc1ccc(NC(=O)N(C)C[C@@H]2OCCCC[C@@H](C)Oc3ccc(NC(=O)c4ccccc4)cc3C(=O)N([C@H](C)CO)C[C@@H]2C)cc1 | inactive
C[C@H](CO)N1C[C@H](C)[C@H](CN(C)Cc2ccc(Cl)c(Cl)c2)Oc2c(NS(=O)(=O)c3ccc(F)cc3)cccc2C1=O | inactive
Cc1cc(N2C(=O)CCC2=O)no1 | inactive
CCS(=O)(=O)N1CCN(C[C@@H](C)O)CC1 | inactive
C[C@H](CO)N1C[C@H](C)[C@@H](CN(C)Cc2ccccc2)Oc2c(NC(=O)Nc3ccc(C(F)(F)F)cc3)cccc2C1=O | inactive
C[C@H](CO)N1C[C@H](C)[C@H](CN(C)Cc2ccc(C(=O)O)cc2)Oc2c(NC(=O)c3cnccn3)cccc2C1=O | inactive
C[C@@H]1CN([C@H](C)CO)C(=O)Cc2cc(N(C)C)ccc2O[C@@H]1CN(C)S(=O)(=O)c1cn(C)cn1 | inactive
CC(=O)OCC(=O)C1CCC2C3CCC4=CC(=O)CCC4(C)C3CCC12C (stereo not given) | inactive
Nc1ccc([C@@H](O)[C@@H](O)CO)cc1 | inactive
CCCC(=O)Nc1ccc2c(c1)OC[C@@H](C)N(S(=O)(=O)c1cn(C)cn1)C[C@H](C)[C@H](OC)CN(C)C2=O | inactive
C[C@H]1CCCCO[C@@H](CN(C)S(=O)(=O)c2ccc(F)cc2)[C@@H](C)CN([C@@H](C)CO)C(=O)c2cc(NC(=O)C3CCCCC3)ccc2O1 | inactive
C/C(=C/CC[C@@H](CO)[C@H]1CC[C@@]2(C)[C@H]3CC[C@@H]4C(C)(C)[C@H](O[C@H]5O[C@@H](CO)[C@@H](O)[C@@H](O)[C@@H]5O)C[C@H](O)[C@@]45C[C@@]35CC[C@@]12C)CO[C@H]1O[C@@H](CO)[C@@H](O)[C@@H](O)[C@@H]1O | inactive
C[C@H]1CN([C@@H](C)CO)S(=O)(=O)c2ccc(Br)cc2O[C@H]1CN(C)C(=O)NC1CCCCC1 | inactive
O=C(O)[C@@H](O)Cc1ccc(O)c(O)c1 | inactive
C[C@@H]1CN([C@H](C)CO)C(=O)c2cccc(NC(=O)C3CCCCC3)c2O[C@@H]1CN(C)Cc1ccc(-c2ccccc2)cc1 | inactive
COc1ccc(NC(=O)Nc2ccc3c(c2)C(=O)N([C@H](C)CO)C[C@@H](C)[C@H](CN(C)S(=O)(=O)c2ccccc2)OCCCC[C@H](C)O3)cc1 | inactive
CCS(=O)(=O)N1CC[C@]2(CC1)CN([C@@H](CO)c1c2c2ccc(cc2n1C)OC)C(=O)Nc1c(noc1C)C | inactive
CC(=O)OC1CC(C)(C)C(=C=C/C(C)=C/C=C/C(C)=C/C=C/C=C(C)/C=C/C=C(\C)C(=O)CC23OC2(C)CC(O)CC3(C)C)C(C)(O)C1 (stereo not given) | inactive
CC(C)(O)CC(=O)NCCn1ccc2ncnc(Nc3ccc(Oc4cccc(C(F)(F)F)c4)c(Cl)c3)c21 | inactive
Cc1noc(C)c1NC(=O)N(C)C[C@H]1Oc2ccc(NS(=O)(=O)c3cn(C)cn3)cc2C(=O)N([C@@H](C)CO)C[C@@H]1C | inactive
COc1ccc(cc1)CN1C[C@]2(CN(C2)C(=O)Cc2ccncc2)c2c([nH]c3cc(ccc23)OC)[C@@H]1CO | inactive
Nc1nc(=O)c2ncn(COCCO)c2[nH]1 | inactive
C[C@@H]1CCCCO[C@@H](CN(C)S(=O)(=O)c2ccccc2)[C@@H](C)CN([C@@H](C)CO)C(=O)c2cc(NS(=O)(=O)c3ccc(Cl)cc3)ccc2O1 | inactive
CC(C)NC(=O)N(C)C[C@@H]1Oc2cc(C#Cc3cccc(F)c3)ccc2S(=O)(=O)N([C@@H](C)CO)C[C@H]1C | inactive
CO[C@@H](CN(C)C(=O)c1ccccc1F)[C@H](C)CN([C@@H](C)CO)S(=O)(=O)c1ccc(Cl)cc1 | inactive
C[C@@H]1CN([C@H](C)CO)C(=O)c2cc(NC(=O)CCN3CCOCC3)ccc2O[C@H]1CN(C)S(=O)(=O)c1ccc(F)cc1 | inactive
C[C@@H]1CCCCO[C@@H](CN(C)Cc2ccc(C(F)(F)F)cc2)[C@H](C)CN([C@H](C)CO)C(=O)c2cc(NS(=O)(=O)c3cccs3)ccc2O1 | inactive
C[C@@H]1CN([C@H](C)CO)C(=O)c2cccc(NS(=O)(=O)c3cccs3)c2O[C@@H]1CN(C)S(C)(=O)=O | inactive
CN1CCN(C(=O)C[C@H]2CC[C@H]3[C@@H](COC[C@H](O)CN3C(=O)C3CCCC3)O2)CC1 | inactive
